This passage reports enrichment score results from the supplement of paper PMC10369915.

Some of the results follow. Cut-off read from the data, not from the text of the source: active = 3.2 or more and inactive = the rest. Most of these values are background signal.
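Note: displayed peptides selected on beads carrying the immobilized SH2 domain, with library peptides lacking any tyrosine serving as negative controls.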

In one experiment the target is SHP2 C-SH2 domain E139D. The experiment can be described thus: enrichment score (SH2-bound / input frequency) (ratio); bacterial display of known human phosphotyrosine sites (pTyr-Var adds point mutants) read by sequencing; higher = stronger binding; tyrosines were phosphorylated by kinases first. The note with it: peptide library: Human pTyr.
Turning to AKSPDEAYAIAKKLG [SUCB1_HUMAN_84], the enrichment score is inactive: 1.09.
For the molecule EQFEYAAYIIHAYKD [TLR3_HUMAN_759], the enrichment score was inactive: 2.62.
Same read-out and setting: with EPFIDAKYDVRVQKI [SYN1_HUMAN_312] the figure was inactive: 0.525.
Same read-out and setting: then KIFPAEEYASWKTEK [TGFBR2_HUMAN_284_YA], with inactive: 0.991.
Regarding NVLAKALYDNVAESP [BCAR1_HUMAN_12], the enrichment score is inactive: 0.532.
For the molecule METLQRIYGISFPDP [SYTC_HUMAN_298], the enrichment score is inactive: 0.865.
Same read-out and setting: then FLLAFEHYINYRKHH [THRB_HUMAN_406], with active: 3.28; and FLLAFEHYINARKHH [THRB_HUMAN_406_YA], with active: 3.54.
On the same count and under the same terms, with SGLSRAAYPPELRFM [TIRAP_HUMAN_187] the figure was inactive: 0.803; with NRGGYGNYRSNWQNY [THRAP3_HUMAN_107], inactive: 2.87.
In the case of SGLEEAVYRNIQACK [TCPQ_HUMAN_30], the enrichment score was inactive: 0.817.
Still for that read-out and setting: then EDNDDDLYGGGGGGG [TERA_HUMAN_805], with inactive: 1.11; and DRKDQGGYTMHQDQE [TAU_HUMAN_29], with inactive: 0.845; and DAVLAIKYTDIRGQP [TCPA_HUMAN_181], with inactive: 2.07.
Take MLEERKTYVNTTLYE [TIE2_HUMAN_1102]: the enrichment score is inactive: 0.857.
As to KIPQDGDYEFLKSWT [STK4_HUMAN_433], the enrichment score is inactive: 0.844.
For DKAGNEGYIPSNAVT [TEC_HUMAN_228_YA], the enrichment score was inactive: 0.549.
Turning to TQYVHSPYDRPGWNP [SYGP1_HUMAN_39], the enrichment score was inactive: 0.928.

The target in a further experiment is SHP2 C-SH2 domain wild-type. Described as above. Particulars: peptide library: Human pTyr.
As to AKSPDEAYAIAKKLG [SUCB1_HUMAN_84], the enrichment score was inactive: 0.81.
Still for that read-out and setting: with EQFEYAAYIIHAYKD [TLR3_HUMAN_759] the figure was inactive: 3.11; with EPFIDAKYDVRVQKI [SYN1_HUMAN_312], inactive: 0.499.
Regarding KIFPAEEYASWKTEK [TGFBR2_HUMAN_284_YA], the enrichment score is inactive: 0.98.
Still for that read-out and setting: then NVLAKALYDNVAESP [BCAR1_HUMAN_12], with inactive: 0.489.
Same read-out and setting: with METLQRIYGISFPDP [SYTC_HUMAN_298] the figure was inactive: 0.911; with FLLAFEHYINYRKHH [THRB_HUMAN_406], active: 3.77.
On the same count and under the same terms, with FLLAFEHYINARKHH [THRB_HUMAN_406_YA] the figure was inactive: 2.82; with SGLSRAAYPPELRFM [TIRAP_HUMAN_187], inactive: 0.638; with NRGGYGNYRSNWQNY [THRAP3_HUMAN_107], inactive: 2.8.
SGLEEAVYRNIQACK [TCPQ_HUMAN_30]: the enrichment score is inactive: 0.723.
With EDNDDDLYGGGGGGG [TERA_HUMAN_805], the enrichment score is inactive: 0.821.
Regarding DRKDQGGYTMHQDQE [TAU_HUMAN_29], the enrichment score was inactive: 0.602.
The same measure, in the same setting: then DAVLAIKYTDIRGQP [TCPA_HUMAN_181], with active: 4.34.
Consider MLEERKTYVNTTLYE [TIE2_HUMAN_1102], for which the enrichment score was inactive: 0.596.
On the same count and under the same terms, then KIPQDGDYEFLKSWT [STK4_HUMAN_433], with inactive: 0.673.
On to DKAGNEGYIPSNAVT [TEC_HUMAN_228_YA], for which the enrichment score was inactive: 0.473.
For TQYVHSPYDRPGWNP [SYGP1_HUMAN_39], the enrichment score was inactive: 1.1.

In the next experiment the target is SHP2 N-SH2 domain L43F. The description is as above. Particulars: peptide library: Human pTyr.
In the case of AKSPDEAYAIAKKLG [SUCB1_HUMAN_84], the enrichment score is inactive: 0.792.
In the case of EQFEYAAYIIHAYKD [TLR3_HUMAN_759], the enrichment score was inactive: 2.84.
Still for that read-out and setting: then EPFIDAKYDVRVQKI [SYN1_HUMAN_312], with inactive: 0.688; and KIFPAEEYASWKTEK [TGFBR2_HUMAN_284_YA], with inactive: 0.99; and NVLAKALYDNVAESP [BCAR1_HUMAN_12], with inactive: 0.631.
Still for that read-out and setting: then METLQRIYGISFPDP [SYTC_HUMAN_298], with inactive: 0.851; and FLLAFEHYINYRKHH [THRB_HUMAN_406], with active: 4.05.
Still for that read-out and setting: then FLLAFEHYINARKHH [THRB_HUMAN_406_YA], with active: 3.61; and SGLSRAAYPPELRFM [TIRAP_HUMAN_187], with inactive: 0.76.
As for NRGGYGNYRSNWQNY [THRAP3_HUMAN_107], the enrichment score was inactive: 2.2.
Still for that read-out and setting: with SGLEEAVYRNIQACK [TCPQ_HUMAN_30] the figure was inactive: 0.692; with EDNDDDLYGGGGGGG [TERA_HUMAN_805], inactive: 0.865; with DRKDQGGYTMHQDQE [TAU_HUMAN_29], inactive: 0.874.
As to DAVLAIKYTDIRGQP [TCPA_HUMAN_181], the enrichment score is inactive: 0.883.
As for MLEERKTYVNTTLYE [TIE2_HUMAN_1102], the enrichment score was inactive: 0.76.
Same read-out and setting: with KIPQDGDYEFLKSWT [STK4_HUMAN_433] the figure was inactive: 0.806; with DKAGNEGYIPSNAVT [TEC_HUMAN_228_YA], inactive: 0.658; with TQYVHSPYDRPGWNP [SYGP1_HUMAN_39], inactive: 0.456.

The target of the next experiment is SHP2 N-SH2 domain T42A. The experiment is described as above. The note with it: peptide library: Human pTyr.
For the molecule AKSPDEAYAIAKKLG [SUCB1_HUMAN_84], the enrichment score is inactive: 0.802.
Same read-out and setting: then EQFEYAAYIIHAYKD [TLR3_HUMAN_759], with inactive: 2.61; and EPFIDAKYDVRVQKI [SYN1_HUMAN_312], with inactive: 0.518; and KIFPAEEYASWKTEK [TGFBR2_HUMAN_284_YA], with inactive: 1.05.
For the molecule NVLAKALYDNVAESP [BCAR1_HUMAN_12], the enrichment score was inactive: 0.648.
On the same count and under the same terms, with METLQRIYGISFPDP [SYTC_HUMAN_298] the figure was inactive: 0.887; with FLLAFEHYINYRKHH [THRB_HUMAN_406], active: 3.31.
On to FLLAFEHYINARKHH [THRB_HUMAN_406_YA], for which the enrichment score was inactive: 2.73.
The same measure, in the same setting: with SGLSRAAYPPELRFM [TIRAP_HUMAN_187] the figure was inactive: 0.647.
The same measure, in the same setting: then NRGGYGNYRSNWQNY [THRAP3_HUMAN_107], with inactive: 2.51; and SGLEEAVYRNIQACK [TCPQ_HUMAN_30], with inactive: 0.684.
EDNDDDLYGGGGGGG [TERA_HUMAN_805]: the enrichment score is inactive: 0.949.
On the same count and under the same terms, then DRKDQGGYTMHQDQE [TAU_HUMAN_29], with inactive: 0.811; and DAVLAIKYTDIRGQP [TCPA_HUMAN_181], with inactive: 1.81; and MLEERKTYVNTTLYE [TIE2_HUMAN_1102], with inactive: 0.613.
Still for that read-out and setting: with KIPQDGDYEFLKSWT [STK4_HUMAN_433] the figure was inactive: 0.85; with DKAGNEGYIPSNAVT [TEC_HUMAN_228_YA], inactive: 0.562.
Same read-out and setting: with TQYVHSPYDRPGWNP [SYGP1_HUMAN_39] the figure was inactive: 0.704.

Another experiment deals with SHP2 N-SH2 domain T52S. The experiment is described as above. The note with it: peptide library: Human pTyr.
With AKSPDEAYAIAKKLG [SUCB1_HUMAN_84], the enrichment score was inactive: 0.885.
EQFEYAAYIIHAYKD [TLR3_HUMAN_759]: the enrichment score was inactive: 2.87.
Same read-out and setting: then EPFIDAKYDVRVQKI [SYN1_HUMAN_312], with inactive: 0.627; and KIFPAEEYASWKTEK [TGFBR2_HUMAN_284_YA], with inactive: 1.08; and NVLAKALYDNVAESP [BCAR1_HUMAN_12], with inactive: 0.645.
Still for that read-out and setting: then METLQRIYGISFPDP [SYTC_HUMAN_298], with inactive: 0.846.
With FLLAFEHYINYRKHH [THRB_HUMAN_406], the enrichment score is active: 3.82.
Take FLLAFEHYINARKHH [THRB_HUMAN_406_YA]: the enrichment score is inactive: 2.74.
SGLSRAAYPPELRFM [TIRAP_HUMAN_187]: the enrichment score is inactive: 1.05.
Same read-out and setting: then NRGGYGNYRSNWQNY [THRAP3_HUMAN_107], with inactive: 2.98; and SGLEEAVYRNIQACK [TCPQ_HUMAN_30], with inactive: 0.543; and EDNDDDLYGGGGGGG [TERA_HUMAN_805], with inactive: 1.02.
Turning to DRKDQGGYTMHQDQE [TAU_HUMAN_29], the enrichment score is inactive: 0.659.
Still for that read-out and setting: then DAVLAIKYTDIRGQP [TCPA_HUMAN_181], with inactive: 0.97; and MLEERKTYVNTTLYE [TIE2_HUMAN_1102], with inactive: 0.953; and KIPQDGDYEFLKSWT [STK4_HUMAN_433], with inactive: 0.854.
The same measure, in the same setting: then DKAGNEGYIPSNAVT [TEC_HUMAN_228_YA], with inactive: 0.634; and TQYVHSPYDRPGWNP [SYGP1_HUMAN_39], with inactive: 0.361.

The target of a further experiment is SHP2 N-SH2 domain wild-type. The experiment is described as above. Particulars: peptide library: Human pTyr.
Turning to AKSPDEAYAIAKKLG [SUCB1_HUMAN_84], the enrichment score is inactive: 1.02.
Still for that read-out and setting: with EQFEYAAYIIHAYKD [TLR3_HUMAN_759] the figure was active: 4.14; with EPFIDAKYDVRVQKI [SYN1_HUMAN_312], inactive: 0.635; with KIFPAEEYASWKTEK [TGFBR2_HUMAN_284_YA], inactive: 0.697.
Same read-out and setting: with NVLAKALYDNVAESP [BCAR1_HUMAN_12] the figure was inactive: 0.657; with METLQRIYGISFPDP [SYTC_HUMAN_298], inactive: 1.08; with FLLAFEHYINYRKHH [THRB_HUMAN_406], active: 4.41.
The same measure, in the same setting: then FLLAFEHYINARKHH [THRB_HUMAN_406_YA], with active: 3.51; and SGLSRAAYPPELRFM [TIRAP_HUMAN_187], with inactive: 0.782.
NRGGYGNYRSNWQNY [THRAP3_HUMAN_107]: the enrichment score is active: 3.37.
For SGLEEAVYRNIQACK [TCPQ_HUMAN_30], the enrichment score was inactive: 0.771.
Same read-out and setting: with EDNDDDLYGGGGGGG [TERA_HUMAN_805] the figure was inactive: 0.777; with DRKDQGGYTMHQDQE [TAU_HUMAN_29], inactive: 0.732.
Take DAVLAIKYTDIRGQP [TCPA_HUMAN_181]: the enrichment score is inactive: 0.865.
On the same count and under the same terms, then MLEERKTYVNTTLYE [TIE2_HUMAN_1102], with inactive: 0.886; and KIPQDGDYEFLKSWT [STK4_HUMAN_433], with inactive: 0.836; and DKAGNEGYIPSNAVT [TEC_HUMAN_228_YA], with inactive: 0.407.
The same measure, in the same setting: with TQYVHSPYDRPGWNP [SYGP1_HUMAN_39] the figure was inactive: 0.616.
